# Assay results: publication PMC4336329 (PLoS ONE, 2015)
# Among all 310,000 compounds or so, about 2,200 (0.71%) showed an effect of 50% or more. The effect is printed as a negative number. This is one part of the list.
# Target: human ether-à-go-go-related gene (hERG) potassium channel (human, UniProt Q12809)
# Experiment: primary screen, population patch clamp on CHO cells stably expressing hERG
# Chain of human ether-à-go-go-related gene (hERG) potassium channel (Q12809 whole entry, looked up): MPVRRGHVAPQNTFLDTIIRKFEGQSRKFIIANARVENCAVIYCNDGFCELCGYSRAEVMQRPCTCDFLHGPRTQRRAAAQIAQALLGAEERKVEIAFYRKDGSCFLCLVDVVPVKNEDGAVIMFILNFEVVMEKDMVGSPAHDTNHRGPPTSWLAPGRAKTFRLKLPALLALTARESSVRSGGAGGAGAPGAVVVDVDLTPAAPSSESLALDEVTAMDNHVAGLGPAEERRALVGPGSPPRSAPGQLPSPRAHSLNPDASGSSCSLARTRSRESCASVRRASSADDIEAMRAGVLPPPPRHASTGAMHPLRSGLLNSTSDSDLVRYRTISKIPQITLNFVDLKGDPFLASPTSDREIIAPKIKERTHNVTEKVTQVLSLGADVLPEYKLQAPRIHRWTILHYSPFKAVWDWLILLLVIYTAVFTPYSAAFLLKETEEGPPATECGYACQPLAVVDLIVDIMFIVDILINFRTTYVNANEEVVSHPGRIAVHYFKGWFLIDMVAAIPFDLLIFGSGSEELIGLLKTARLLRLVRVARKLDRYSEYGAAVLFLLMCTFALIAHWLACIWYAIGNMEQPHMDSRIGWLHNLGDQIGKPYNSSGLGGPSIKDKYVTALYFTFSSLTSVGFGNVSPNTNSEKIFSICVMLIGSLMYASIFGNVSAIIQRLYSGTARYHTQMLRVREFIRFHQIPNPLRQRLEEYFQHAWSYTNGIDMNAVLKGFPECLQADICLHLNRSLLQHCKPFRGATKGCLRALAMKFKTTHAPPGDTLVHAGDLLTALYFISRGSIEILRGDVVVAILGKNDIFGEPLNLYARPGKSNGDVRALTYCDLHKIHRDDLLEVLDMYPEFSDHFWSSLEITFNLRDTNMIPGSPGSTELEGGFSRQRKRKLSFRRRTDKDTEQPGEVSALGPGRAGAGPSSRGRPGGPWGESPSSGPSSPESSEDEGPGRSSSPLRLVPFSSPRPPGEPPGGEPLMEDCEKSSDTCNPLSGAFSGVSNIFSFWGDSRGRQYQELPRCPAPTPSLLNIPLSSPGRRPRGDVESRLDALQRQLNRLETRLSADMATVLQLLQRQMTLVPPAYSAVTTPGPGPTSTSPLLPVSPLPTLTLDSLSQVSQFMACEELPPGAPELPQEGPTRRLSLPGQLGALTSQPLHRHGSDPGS
row,Compound,"hERG current change (%, negative = inhibition) at 1uM [%]"
1,O=[N+]([O-])c1cc(-c2nnc(Nc3ccccc3)c3ccccc23)ccc1N1CCOCC1,3.9
2,CCO[C@@H]1OC(C(=O)N2CCOCC2)=C[C@H](c2ccc(C(F)(F)F)cc2)[C@H]1CCCO,10.3
3,O=C(Nc1cc(C(F)(F)F)ccc1N1CCOCC1)c1cccnc1,-4.61
4,CCN(CC)S(=O)(=O)c1ccc(C(=O)OCC(=O)N2CCOCC2)cc1,25.9
5,CCOc1c(Br)cc(/C=C2\C(=O)N(CCC#N)N=C2C)cc1OC,12.8
6,COc1cc(/C=N/n2c(-c3ccccc3)n[nH]c2=S)cc(OC)c1O,24.4
7,CCn1c(SCC(=O)N(C)C)nc2cc(S(=O)(=O)N3CCCCC3)ccc21,8.72
8,Cc1ccc(/C(O)=C2/C(=O)C(=O)N(CC(=O)O)C2c2ccc([N+](=O)[O-])cc2)cc1 (stereo not drawn),7.35
9,NNC(=O)CN1C(c2ccccc2)=Nc2ccc(Br)cc2C1c1ccccc1 (stereo not drawn),0.332
10,Cc1ccc(CN(CC(=O)NC2CCCCC2)C(=O)c2csnn2)cc1,12.1
11,COc1ccc(C(C(=O)NC2CCCC2)N(C(=O)c2ccco2)c2ccc3c(c2)OCO3)cc1OC (stereo not drawn),-9.48
12,CCCCCCC1/C(=N\NC(=O)c2ccccc2)CCC1C(=O)OC (stereo not drawn),2.54
13,COc1cc(C(=O)Nc2ccc(S(=O)(=O)Nc3cnc4ccccc4n3)cc2)cc(OC)c1OC,16.1
14,Cc1cccc(N2CCN(C(=O)Cn3nc(Cc4ccncc4)c4ccccc4c3=O)CC2)c1C,3.71
15,O=C(COc1ccccc1Cl)N(Cc1ccco1)C1CCS(=O)(=O)C1 (stereo not drawn),9.37
16,COCc1ccc(C(=O)N2CCCC(C(=O)c3ccc(SC)cc3)C2)s1 (stereo not drawn),3.01
17,CCC(C)Sc1nnc(Cc2cc(=O)[nH]c(=O)[nH]2)n1-c1ccc(OC)cc1 (stereo not drawn),14.6
18,c1cc(CNc2ccc(N3CCOCC3)cc2)ccn1,14.7
19,CCN(CC)CCN(Cc1cc2cc3c(cc2[nH]c1=O)OCO3)C(=S)NCc1ccco1,-10.4
20,CCC(=O)NCCCc1nc2ccccc2n1Cc1ccccc1F,-6.35
21,O=C(N/N=C/c1ccc2ncccc2c1)c1ccco1,3.7
22,Cc1ccn2cc(C(=O)N3CCN(c4cnn(-c5ccccc5)c(=O)c4Cl)CC3)nc2c1,-3.73

row,Compound,"hERG current change (%, negative = inhibition) at 1uM [%]"
1,COc1cccc(SCC2CSc3nc4ccccc4c(=O)n32)c1 (stereo not drawn),1.51
2,CC(C)(C)c1ccc(SCCc2ccccn2)cc1,11.7
3,O=C(Nc1ccc(F)cc1)c1cccc2ccccc12,17
4,O=C(NCC(=O)N(Cc1ccco1)C(C(=O)NC1CCCCC1)c1ccncc1)c1cccs1 (stereo not drawn),5.06
5,CN1CCN(c2ccc(NC(=O)c3cccc(S(=O)(=O)N4CCCC4)c3)cc2)CC1,13.3
6,COC(=O)/C(=C/Nc1cccc2ccccc12)[N+](=O)[O-],-3.86
7,Cl.O=C(O)CC1(CC(=O)N2CCN(CCO)CC2)CCCC1,-0.0866
8,CC(C)CC12CN3CCN(CC(C3)/C1=N/O)C2,1
9,Cc1ccc(N2/C(=N/c3nc(C)cc(C)n3)NC(=O)CC2C(=O)O)cc1 (stereo not drawn),3.84
10,COc1cc(C(=O)Nc2ccc(S(=O)(=O)N3CCCCC3C)cc2)cc(OC)c1OC (stereo not drawn),-10.7
11,COc1ccc(/C=C/C(=O)Oc2ccc(/C=N/NC(=O)COc3c(C)cccc3C)cc2)cc1,12.1
12,CN1CCN(C(=O)c2cc3c(=O)n4ccccc4nc3s2)CC1,3.82
13,O=C(CCCc1nc(-c2ccccc2)no1)N1CCOCC1,10.7
14,COc1ccccc1NC(=O)CSC1=NCCN1.Cl,13.8
15,O=C(Nc1ccc(C(=O)N2CCCC2)cc1)c1cccc(C(F)(F)F)c1,8.56
16,CCOc1ccc(C(=O)NCCCN2CCOCC2)cc1OCC,15.8
17,O=C(NCc1ccccc1)c1cnc(Cl)c(Cl)c1,8.31
18,O=C(Cn1ncc2c1-c1ccccc1OC2)N1CCN(Cc2ccc3c(c2)OCO3)CC1,-31
19,CC(C)COc1ccc(C(=O)Nc2scc(-c3ccc(Cl)cc3Cl)c2C(N)=O)cc1,10.1
20,CCCCCCNC(=O)C(=O)NCCc1ccc(Cl)cc1,9.73
21,Cc1ccc(C(C)C)c(OCC(=O)NC(=S)Nc2ccccc2N2CCOCC2)c1,6.15
22,O=S(=O)(N1CCOCC1)n1nnc2ccccc21,11.4

row,Compound,"hERG current change (%, negative = inhibition) at 1uM [%]"
1,COC(=O)Cc1ccc(NC(=S)NCc2cccc(OC)c2)cc1,9.47
2,CNC(=O)C1CC(=O)N/C(=N/N=C(\C)c2cccs2)S1 (stereo not drawn),15.2
3,CC(=O)Oc1c(-c2ccc(Br)o2)oc2ccccc2c1=O,13
4,CCN(CC)C(=O)CSc1nc(N)c(C#N)c(-c2cccs2)c1C#N,15.7
5,COc1cccc(Nc2nc3ccccc3n2C(C)C)c1,16.5
6,CN(C(=O)COC(=O)c1c2c(nc3ccccc13)/C(=C/c1cccc([N+](=O)[O-])c1)CCC2)C1CCS(=O)(=O)C1 (stereo not drawn),0.789
7,COc1ccc(O)c(C2=Nc3ccccc3N=C(c3ccco3)C2)c1,10.5
8,C=CCn1c(Cc2c(C)[nH]c3ccccc23)nnc1SCC(=O)NCc1ccc(F)cc1,2.02
9,O=c1c2c(nc3nc(COc4ccccc4)[nH]n13)CCC2,4.63
10,CC1CCN(CC(O)COc2ccc(OCC(O)CN3CCC(C)CC3)cc2)CC1 (stereo not drawn),5.25
11,CCOc1cc(C(N)=O)cc(Br)c1OCc1ccccc1,9.16
12,C/C(=N/NS(=O)(=O)c1ccc(C)c(C)c1)c1ccncc1,6.5
13,COc1ccccc1N1CCN(C(=O)CSc2ccc3c(C)cc(C)nc3n2)CC1,7.83
14,CCC(=O)Nc1ccc(Cl)c(NC(=S)NC(=O)c2cc3ccccc3o2)c1,3.1
15,COc1ccc(NC(=O)CSc2ncccc2C(=O)OC(C)C)cc1OC,4.36
16,Cc1ccc(S(=O)(=O)N/N=C\c2ccc(Cl)c([N+](=O)[O-])c2)cc1,21
17,CCC(=O)N1CCc2cc(OC)c(OC)cc2C1COc1ccc(F)cc1 (stereo not drawn),8.59
18,CCOC(=O)c1c(/N=C/N(C)C)sc(C(=O)OC)c1C,10.9
19,CSc1nc2ncc(C#N)cn2n1,14.2
20,CN1CCN(CCc2cn3ncc(C#N)c3nc2-c2ccc(F)cc2)CC1,0.111
21,Cn1c(SCC2CCCO2)nnc1-c1cccc([N+](=O)[O-])c1 (stereo not drawn),16.7
22,Cc1c(N=C2N=C(NC(=O)c3cccs3)c3ccccc32)c(=O)n(-c2ccccc2)n1C,2.36

row,Compound,"hERG current change (%, negative = inhibition) at 1uM [%]"
1,Cc1ccc(C(=O)NC(NCc2ccco2)C(Cl)(Cl)Cl)cc1 (stereo not drawn),8.23
2,Cc1c(C2N3CC4(C)CN2CC(C)(C3)C4=O)c2ccccc2n1C (stereo not drawn),-15.5
3,CCN(CCCNC(=O)C1CCCN(S(=O)(=O)c2cnc[nH]2)C1)c1ccccc1 (stereo not drawn),4.47
4,COc1cccc(-n2c(C)nnc2SCC(=O)Nc2ccccc2N2CCOCC2)c1,-11.9
5,COC(=O)c1ccccc1S(=O)(=O)N(Cc1cc2ccc(OC)cc2[nH]c1=O)CC1CCCO1 (stereo not drawn),-1.66
6,COC(=O)c1[nH]c2cccc(OC)c2c1NC(=O)CCN1CCC(C(N)=O)CC1,-0.381
7,CCOC(=O)c1cn(Cc2cccc(Cl)c2)c2cc(C)nn2c1=O,-0.36
8,O=C(c1ccc(Cl)s1)N(Cc1nnc(-c2ccccc2Cl)o1)C1CC1,11.3
9,CCOC(=O)NC(CC(=O)O)c1ccc(OCC)cc1 (stereo not drawn),0.656
10,CC1Oc2ccccc2C(=O)N(CC(=O)c2ccc3c(c2)OCCO3)C1=O (stereo not drawn),11.5
11,Cn1ccnc1SCC(=O)NC1CCCCC1,16.4
12,Cc1onc(-c2c(Cl)cccc2Cl)c1C(=O)N1CCCc2ccccc21,9.33
13,CC(C)c1nnc2c(N(C)S(=O)(=O)c3ccccc3)nc3ccccc3n12,-2
14,CC(NC(=O)CCCOc1ccc(Cl)cc1)c1ccccc1 (stereo not drawn),4.38
15,O=C(O)CCCN1C(=O)/C(=C\c2ccc(-c3nc4ccccc4s3)o2)SC1=S,7.53
16,COc1cccc(CNC(=O)CSc2ccc(-c3ccncc3)nn2)c1,4.48
17,CN(CC(=O)NCC(=O)Nc1ccc(F)c(F)c1F)C1CCS(=O)(=O)C1 (stereo not drawn),5.72
18,CCCCCCCc1c(O)nc(SCC(=O)O)[nH]c1=O,12.5
19,COc1cccc(NC(=O)[C@@H]2CCCN2S(=O)(=O)c2cccc3cccnc23)c1,11
20,Cc1nnc(NC(=O)c2cccc(NC(=O)C(C)C)c2)s1,9.85
21,CCOC(=O)c1sc(N2C(=O)C(O)=C(C(=O)c3ccco3)C2c2ccc([N+](=O)[O-])cc2)nc1C (stereo not drawn),10.8
